# Test results taken from PMC5540273 (PLoS ONE, 2017).
# For some of these results: This list holds what a sample rich in strong results left over. The entries are a selection whose mix differs from that of the whole data set.
# Tests used:
# Details in all cases: concentration: 1 μM,replicates: in singlicate; n = 1
# NEK9 = test system: NEK9
# NIK = test system: T1, NIK
# T1 construct: gene MAP3K14
# NIM1 = test system: T2, NIM1
# T2 construct: gene MGC42105
# NLK = test system: NLK
# OSR1 = test system: T3, OSR1
# T3 construct: gene OXSR1
# PAK1 = test system: PAK1
# PAK2 = test system: PAK2
# PAK3 = test system: PAK3
# PAK4 = test system: PAK4
# PAK6 = test system: PAK6
# PAK7 = test system: PAK7
# PCTK1 = test system: T4, PCTK1
# T4 construct: gene CDK16
# PCTK2 = test system: T5, PCTK2
# T5 construct: gene CDK17
# PCTK3 = test system: T6, PCTK3
# T6 construct: gene CDK18
# PDGFRA = test system: PDGFRA
# PDGFRB = test system: PDGFRB
# PDPK1 = test system: PDPK1
# PFTAIRE2 = test system: PFTAIRE2
# PFTK1 = test system: T7, PFTK1
# T7 construct: gene CDK14
# PHKG1 = test system: PHKG1
# 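Also: KINOMEscan kinase panel screen.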
SMILES,%Inh (NEK9),%Inh (NIK),%Inh (NIM1),%Inh (NLK),%Inh (OSR1),%Inh (PAK1),%Inh (PAK2),%Inh (PAK3),%Inh (PAK4),%Inh (PAK6),%Inh (PAK7),%Inh (PCTK1),%Inh (PCTK2),%Inh (PCTK3),%Inh (PDGFRA),%Inh (PDGFRB),%Inh (PDPK1),%Inh (PFTAIRE2),%Inh (PFTK1),%Inh (PHKG1)
Cc1cc(C)cc(Oc2nccc(-c3c(-c4ccc(F)cc4)ncn3C3CCNCC3)n2)c1.O=C(O)C(F)(F)F.O=C(O)C(F)(F)F.O=C(O)C(F)(F)F [SB-284851],0%,0%,4%,23%,0%,0%,0%,0%,4%,16%,0%,0%,0%,0%,0%,0%,14%,0%,0%,0%
O=C1NC(=O)C(c2ccc(Cl)cc2)=C1Nc1ccccc1 [SB-317661],0%,36%,44%,0%,10%,8%,3%,0%,5%,0%,0%,2%,0%,0%,0%,0%,0%,2%,15%,2%
COc1cccc(C2=C(Nc3ccc(SC)cc3)C(=O)NC2=O)c1 [SB-331032],0%,13%,22%,11%,20%,18%,35%,38%,12%,0%,12%,17%,0%,0%,28%,0%,0%,0%,4%,7%
O=C(O)c1ccc(-c2nc(-c3ccc(F)cc3)c(-c3ccncc3)[nH]2)cc1 [SB-202620],0%,0%,0%,88%,0%,0%,24%,21%,2%,0%,15%,0%,0%,0%,0%,23%,0%,0%,0%,13%
CS(=O)(=O)c1ccccc1-c1nc(-c2ccc(F)cc2)c(-c2ccncc2)[nH]1 [SB-213663],0%,0%,21%,78%,0%,0%,3%,33%,24%,6%,31%,9%,0%,0%,11%,5%,0%,2%,0%,0%
O=C1NC(=O)C(c2ccccc2)=C1Nc1ccc(Cl)c(C(=O)O)c1 [SB-390532],36%,0%,33%,29%,0%,19%,21%,0%,0%,0%,0%,0%,0%,7%,0%,0%,0%,11%,15%,0%
O=C1NC(=O)C(c2ccc(Cl)cc2)=C1Nc1cccc(O)c1 [SB-333613],0%,26%,43%,5%,22%,28%,29%,2%,19%,1%,3%,12%,0%,5%,29%,0%,10%,0%,11%,0%
O=C1NC(=O)C(c2ccccc2Cl)=C1Nc1ccccc1 [SB-376715],14%,0%,1%,0%,3%,17%,0%,0%,0%,0%,11%,14%,0%,4%,0%,0%,3%,8%,1%,7%
